In PubChem BioAssay AID743279 (National Center for Advancing Translational Sciences (NCATS), 2014):
The whole screen tested about 360,000 compounds, of which about 17,000 (4.7%) were called active. The inconclusive results got no clear call from the source; some entries with a clear call stand among them for comparison. Cut-off read from the data, not from the text of the source: active = activity change below about -50%; inconclusive = mostly about -30% to -49%; inactive = weaker than that.
% is set by controls: 0 for no effect and ±100 for the full control effect.

Test: qHTS for Inhibitors of Inflammasome Signaling: IL-1-beta AlphaLISA Primary Screen
Conditions: THP-1 LPS/ATP IL-1B secretion, 16 h; at 57.5 µM, hits give low values
How it was run: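 THP-1 cells pretreated 1 hr with compounds (up to 57.5 uM final), then stimulated with LPS (250 ng/mL final) plus ATP (1.25 mM final); secreted IL-1B measured by AlphaLISA after 16 hr, decreased signal indicating inhibition.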
For `C/C(=C\c1ccc(Br)cc1)C(=O)c1c(C)cc(C)[nH]c1=O`, the activity change was inconclusive: -42.5%. For `CCOC(=O)c1c(NC(=O)CN(CC)CC)sc2c1CCN(C(=O)OCC)C2`, the activity change was inconclusive: -33.6%. For `CC(=O)c1cc2c(cc1NC(=O)CSc1nc3ccc(C)cc3[nH]1)OCO2`, the activity change was active: -74.2%. In the case of `CCOC(=O)[C@]12CCCC=C1N(Cc1ccco1)C(=O)[C@H](CC(=O)NCC13CC4CC(CC(C4)C1)C3)C2`, the activity change is reported as active: -55.4%. With `N#Cc1cc([N+](=O)[O-])ccc1NC(=O)COC(=O)C1CCC(=O)N1` (configuration not stated) the activity change was inactive: -5.64%. In the case of `Cc1ncc(C)c2c([N+](=O)[O-])cccc12`, the activity change is reported as inconclusive: -30.6%. With `CCN(CC)S(=O)(=O)c1ccc(OC)c(NC(=O)COc2ccc3c(C)cc(=O)oc3c2)c1` the activity change was inactive: 10.1%. With `COc1ccc(N2CCC(CNC(=S)Nc3cc(C)cc(C)c3)C2)cc1` (configuration not stated) the activity change was active: -90.7%. In the case of `Cc1ccccc1NC(=O)COc1ccccc1C`, the activity change is reported as inactive: -2.85%. For `COc1ccc(N2C(=O)/C(=C\c3ccco3)N=C2SCC(N)=O)cc1Cl`, the activity change was inconclusive: -39.9%. In the case of `COc1cc(C=C(c2nc3ccccc3s2)c2nc3ccccc3s2)ccc1O`, the activity change is reported as active: -89.6%. In the case of `CC(C)=CCC/C(C)=C/CNC(=O)C[C@H]1C[C@H](C(=O)N(C(C)C)C(C)C)[C@@]2(C)c3[nH]c4cc(-c5ccco5)ccc4c3CCN2C1=O`, the activity change is reported as active: -65.2%. With `O=C(NCc1ccccn1)c1cc(-c2ccc(Cl)cc2)nc2ccccc12` the activity change was inactive: 3.01%. With `CCOCc1nnc(NC(=O)C2c3ccccc3Oc3ccccc32)s1` the activity change was inactive: 12.6%. For `COc1cc(NC(=O)c2ccccc2)c(OC)cc1NC(=O)CN1CCN(c2ccccn2)CC1`, the activity change was inconclusive: -33.5%. For `C=CCOc1ccc(Br)cc1CNCCO`, the activity change was active: -54.8%. With `O=C(CN1CCN(S(=O)(=O)c2ccc(F)cc2)CC1)Nc1cc(C(F)(F)F)ccc1Cl` the activity change was inactive: -17.9%. For `CN1CCN(c2nc(-c3ccccc3)nc(-c3ccccc3)c2C#N)CC1`, the activity change was active: -96.1%. In the case of `CC(C)(C)c1nc(SCC(=O)NNC(=O)c2ccccc2)c2ccccc2n1`, the activity change is reported as active: -91.3%. For `COCC(=O)Nc1nc2ccc(C)cc2s1`, the activity change was inconclusive: -39%. For `Cc1ccc(S(=O)(=O)c2cc3c(=O)n4ccccc4nc3n(Cc3ccco3)c2=N)cc1`, the activity change was inconclusive: -31.3%. In the case of `COc1ccc(NC(=O)CN(C)C(=O)c2cccc(S(=O)(=O)N3CCN(c4ccc(F)cc4)CC3)c2)cc1`, the activity change is reported as inconclusive: -41.3%. With `CCN(CC)S(=O)(=O)c1cccc(NC(=O)COc2ccc(C#N)cc2OC)c1` the activity change was inactive: 34.1%. For `CCn1cc(CN2CCCC(C(=O)Nc3ccc(-c4nc5ccccc5[nH]4)cc3)C2)c(C)n1` (configuration not stated), the activity change was inconclusive: -41.7%. For `Clc1ccc(C2=Nn3c(Cn4nnc5ccccc54)nnc3SC2)cc1`, the activity change was active: -53.1%. For `COc1ccccc1NC(=O)CSc1nc2ncccc2[nH]1`, the activity change was inactive: 7.06%. For `O=C(COc1ccc(Cl)cc1Cl)N/N=C1\CCCc2ccccc21`, the activity change was inconclusive: -35.6%. With `COc1cccc(CNC(=O)C(Cc2ccccc2)n2cccc2)c1` (configuration not stated) the activity change was inconclusive: -38%. For `CCCCNC(=O)N1CCN(C(=O)c2ccco2)CC1`, the activity change was inactive: 5.69%. In the case of `Cc1ccc2c(c1)C1NC(=S)NC(C)(O2)C1C(=O)Nc1ccc(Cl)cc1` (configuration not stated), the activity change is reported as inconclusive: -40.2%. With `CCOP(=O)(OCC)c1nc(-c2ccc(C)cc2)oc1NCc1ccccc1` the activity change was inconclusive: -38.5%. For `CN(C)c1ccc(/C=N/n2c(C3CCCCC3)n[nH]c2=S)cc1`, the activity change was active: -62%. For `COc1cc(O)c(C(CCN2CCN(c3ccccc3)CC2)c2ccc(N(C)C)cc2)c(OC)c1` (configuration not stated), the activity change was inconclusive: -38.7%. With `CN(C)Cc1csc(NC(=O)Nc2cccc(Cl)c2)n1` the activity change was inconclusive: -35.8%. For `NC(N)=N/N=C(\N=Nc1ccccc1)c1ccc(Cl)cc1`, the activity change was active: -113%. In the case of `CCOc1ccc2c(c1)c(=O)c(S(=O)(=O)c1ccc(C)cc1)cn2CC`, the activity change is reported as inconclusive: -30.2%. With `O=C(c1cccc(S(=O)(=O)N2CCCC2)c1)N1CCCC(C(F)(F)F)C1` (configuration not stated) the activity change was inactive: 2.7%. With `CCN(CC)CCn1c2c(c(SCC(=O)Nc3nc(C)cs3)nc1=O)CCC2` the activity change was active: -69.2%. For `Cc1ccc(-c2nc(-c3cccnc3)no2)c(C)c1`, the activity change was inactive: 80.4%. With `Cc1cccc(C2=NN(c3ccccc3)[C@@H](C(=O)N3CCOC3=O)[C@@H]2c2ccccc2)c1` the activity change was inactive: 21.4%. In the case of `CC/C(=N\NC(=O)c1ccc(N2CCCC2=O)cc1)c1ccccc1`, the activity change is reported as inactive: 7.11%. With `CC(C)CC1C(=O)N(Cc2cn(Cc3ccco3)nn2)CCS(=O)(=O)N1Cc1ccc(-c2ccc(F)cc2)cc1` (configuration not stated) the activity change was active: -71.9%. With `CC1CCCCN1C(=O)CSc1nc(C2CC2)nc2ccccc12` (configuration not stated) the activity change was active: -76.5%. For `CC1(C)Oc2ccc(C(=O)N3CCOCC3)cc2N(CC(=O)Nc2ccccc2)C1=O`, the activity change was inconclusive: -30.8%. With `CCOC(=O)N1CCC(NC(=O)CS(=O)(=O)Cc2nc(-c3cccc(Cl)c3)oc2C)CC1` the activity change was inactive: 6.9%. With `O=C(CCC1N=C2c3ccccc3N=C(SCc3ccc(Cl)cc3)N2C1=O)NCc1ccco1` (configuration not stated) the activity change was inconclusive: -46.1%. In the case of `Cc1oc(-c2ccccc2Cl)nc1CS(=O)CC(=O)NCCc1ccccc1` (configuration not stated), the activity change is reported as inactive: -9.87%. For `CCCCNc1c(-c2ccc(OC)c(SC3CCCCC3)c2)nc2ccc(C)cn12`, the activity change was active: -58.8%. For `Cc1ccc(O)c(CNc2cccc3cccnc23)c1`, the activity change was inconclusive: -33.1%. With `CC1(C)CC(=O)c2sc(NS(=O)(=O)c3cc(Cl)ccc3Cl)nc2C1` the activity change was inactive: 25.2%. In the case of `CN(C1=C(N2CCOCC2)C(=O)c2ccccc2C1=O)c1ccccc1`, the activity change is reported as active: -85.9%. With `CC(C)CN1CCN(CCCOC(=O)Nc2cccc3ccccc23)CC1C` (configuration not stated) the activity change was inactive: -7.02%. With `COc1ccc2cc(-c3[nH]ncc3CN3CCCN(c4ccccc4)CC3)ccc2c1` the activity change was inconclusive: -43.5%. With `C=CC(=O)NC(NC(=O)C=C)c1ccc(Br)cc1` the activity change was inconclusive: -31%. In the case of `COc1ccc(OC)c(C(=O)CN2CCN(S(=O)(=O)c3ccc(Br)cc3)CC2)c1`, the activity change is reported as inactive: -11.9%. With `CCC[C@@H](CN1CCC[C@H]1CN1C(N)=NC[C@H]1CC(C)C)N1C[C@@H]([C@H](C)CC)N(CCCC2CCCC2)C1=N` the activity change was active: -57.6%. In the case of `COC(=O)c1ccc(N2CCCCC2)c(N)c1`, the activity change is reported as inactive: 9.92%. For `COc1ccc(F)cc1S(=O)(=O)Nc1ccncc1`, the activity change was inactive: 1.67%. With `O=C(NCc1ccccc1Cl)C1CCN(S(=O)(=O)c2ccc(F)cc2)CC1` the activity change was inconclusive: -30.2%. In the case of `Cc1ccccc1CNC(=O)Cn1ccc2cc(S(=O)(=O)N3CCCCCC3)ccc21`, the activity change is reported as inactive: 0%. With `CCc1[nH]nc2c1C(c1ccsc1)C(C#N)=C(N)O2` (configuration not stated) the activity change was inconclusive: -33.1%. In the case of `CN(C)c1ccc(/C=N/NC(=O)c2ccccc2Cl)cc1`, the activity change is reported as inconclusive: -37%. For `COc1ccc(N2CCCC2)c(NC(=O)c2ccc([N+](=O)[O-])o2)c1`, the activity change was active: -70.5%. With `OC(Cc1cccc(C=NN2CCOCC2)n1)(C(F)(F)F)C(F)(F)F` the activity change was inactive: -7.19%. In the case of `Cc1ccccc1C(=O)N1CCc2cc(-c3nc(NC(=O)Cc4ccc5c(c4)OCO5)sc3C)ccc21`, the activity change is reported as inconclusive: -41.9%. In the case of `COc1ccccc1C(=O)NCCC(=O)NCC1CCCO1` (configuration not stated), the activity change is reported as inactive: 0.527%. For `CS(=O)(=O)c1ccc(-c2csc(C(O)c3cccc(Cl)c3)n2)cc1` (configuration not stated), the activity change was inactive: 1.17%. For `O=C(CSc1cn(CCNC(=O)c2ccc3ccccc3c2)c2ccccc12)NCc1ccco1`, the activity change was inconclusive: -43.7%. With `COc1ccc(Oc2cc(C(F)(F)F)nc(N(C)C)n2)cc1` the activity change was inconclusive: -36.6%. With `Cc1ccc(/C=C2/SC(=S)N(CCCC(=O)Nc3ccc(O)cc3)C2=O)cc1` the activity change was active: -62.3%. In the case of `CCOC(=O)Nc1ccc2c(c1)ncn2C1CCCCC1`, the activity change is reported as inconclusive: -40.4%. With `Cc1ccc(-c2nc3ccc(Cl)cn3c2Cc2ccsc2)cc1` the activity change was inactive: 5.05%. With `CCOc1ccc(S(=O)(=O)NCCC(=O)NNC(=O)c2ccc(F)cc2)cc1` the activity change was inconclusive: -34.6%. For `N#CCSc1ccc(-c2nc3ccccc3[nH]2)cn1`, the activity change was inconclusive: -47%. In the case of `Cc1noc(C)c1CSCC(=O)Nc1cc(C(F)(F)F)ccc1N1CCOCC1`, the activity change is reported as inconclusive: -32%. In the case of `Clc1cccc(Cl)c1-c1nnc2cccc(Cl)n12`, the activity change is reported as inconclusive: -30.3%. In the case of `COc1ccc(S(=O)(=O)N2CCC(NC(=O)c3cccnc3)CC2)cc1`, the activity change is reported as inactive: -13.2%. For `CC1=C(C(=O)N2CCCCCC2)CC(CC(=O)NCC2CCCCC2)C(=O)N1Cc1ccc(F)cc1` (configuration not stated), the activity change was inactive: -24.8%. For `Cc1cccnc1NC(=O)c1ccc(S(=O)(=O)N2CCC(C)CC2)cc1`, the activity change was inconclusive: -30.8%. In the case of `Cc1cccc(C)c1NC(=S)/C(=C(\[O-])c1cccs1)[n+]1ccccc1`, the activity change is reported as inactive: 7.2%. In the case of `Cc1c(C(=O)NCc2cccc(C(F)(F)F)c2)sc(=O)n1Cc1ccc(S(=O)(=O)N(C)C)cc1`, the activity change is reported as inconclusive: -32.4%. In the case of `Cc1ccc(/C=N/NC(=O)c2nnn(-c3nonc3N)c2CSc2ccccc2)cc1`, the activity change is reported as inactive: 6.97%. With `COc1ccc(-c2nc(-c3ccc(Br)cc3)no2)c(OC)c1` the activity change was inconclusive: -34%. For `Cc1cccc(OCCC(=O)N(C)CC(=O)Nc2cccc3ccccc23)c1`, the activity change was inactive: -8.76%. For `C=CCOc1ccc(C(=O)/C=C2/C(=O)Nc3ccccc32)cc1`, the activity change was active: -91.7%. In the case of `Cc1ccc(CN(C(=O)C(F)(F)F)C(C(=O)NC2CCCCC2)c2ccco2)cc1` (configuration not stated), the activity change is reported as inconclusive: -33.3%. In the case of `O=C(NCCN1C(=O)S/C(=C\c2ccc(OC(F)F)cc2)C1=O)c1cnccn1`, the activity change is reported as inconclusive: -40.8%.
